From a compilation of properties of binary mixtures (doi:10.1007/s10953-014-0257-1)
Some of these densities may be calculated back from excess volumes.

Experiment: xn = mol fraction of the nth substance listed
Conditions: 101 kPa

c1ccc2sccc2c1 + CCCC[N+]1(C)CCCC1.N#C[C-](C#N)C#N
x1 = 1
Conditions | mass density [kg/m3]
308.15 K | 1150.8
318.15 K | 1141.8
328.15 K | 1132.9
338.15 K | 1123.9
348.15 K | 1114.9
358.15 K | 1105.9

CCCC[N+]1(C)CCCC1.N#C[C-](C#N)C#N + c1ccc2sccc2c1
mass density [kg/m3]
Conditions | x2 = 0 | x2 = 0.1112 | x2 = 0.2212 | x2 = 0.3565 | x2 = 0.5267 | x2 = 0.6111 | x2 = 0.6767
308.15 K | – | 1011.2 | 1022.8 | 1039.2 | – | 1078.1 | 1090.1
318.15 K | 994.7 | 1005.1 | 1016.5 | 1032.8 | 1057.2 | 1071.3 | 1083
328.15 K | 988.7 | 998.9 | 1010.3 | 1026.4 | – | 1064.4 | 1076
338.15 K | 982.7 | 992.9 | 1004.1 | – | 1043.9 | 1057.6 | 1069
348.15 K | 976.8 | 986.9 | 998 | 1013.7 | 1037.4 | 1050.8 | 1062.1
358.15 K | 971 | 980.9 | 991.9 | 1007.5 | 1030.8 | 1044.1 | 1055.1
